# The other results are listed elsewhere or left out. Sequences were assembled here from the parent chain. Inactive controls read about 0.05.
# B1: TEV protease; numbered along this chain (parent)
# chain: MGESLFKGPRDYNPISSSICHLTNESDGHTTSLYGIGFGPFIITNKHLFRRNNGTLVVQSLHGVFKVKDTTTLQQHLVDGRDMIIIRMPKDFPPFPQKLKFREPQREERICLVTTNFQTKSMSSMVSDTSCTFPSGDGIFWKHWIQTKDGQCGSPLVSTRDGFIVGIHSASNFTNTNNYFTSVPKNFMELLTNQEAQQWVSGWRLNADSVLWGGHKVFMVKPEEPFQPVKEATQL
# Variants of: B1
# Assay: raw area under fraction-flipped curve 0-4 h after induction (AUC4h, not background-subtracted), DNA-recorder readout of cleavage of the substrate (dimensionless); higher = more cleavage of the substrate by the protease variant
# Details: temperature: 34 °C; time window: 0-4 h after rhamnose induction
# 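Note: Bxb1 expression induced with 0.2% (w/v) L-rhamnose at OD600 near 0.5, cultures sampled hourly, flipped fraction per protease–substrate barcode pair counted by paired-end Illumina sequencing.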
variant,measurement,value
E107Q,area with substrate ENLYDQS,0.0939
same,area with substrate ENLYEQS,0.0549
same,area with substrate ENLYGQS,0.0709
same,area with substrate ENLYKQS,0.0425
same,area with substrate ENLYLQS,0.078
same,area with substrate ENLYPQS,0.0771
same,area with substrate ENLYRQS,0.0537
same,area with substrate ENLYSQS,0.0833
same,area with substrate ENLYTQS,0.0613
same,area with substrate ENLYYQS,0.0664
N177W,area with substrate ENLYDQS,0.0589
same,area with substrate ENLYGQS,0.074
same,area with substrate ENLYHQS,0.0496
same,area with substrate ENLYKQS,0.0603
same,area with substrate ENLYMQS,0.0718
same,area with substrate ENLYNQS,0.0486
same,area with substrate ENLYPQS,0.0669
same,area with substrate ENLYTQS,0.0574
same,area with substrate ENLYVQS,0.0567
D27H,area with substrate ENLYDQS,0.062
same,area with substrate ENLYGQS,0.0517
same,area with substrate ENLYHQS,0.0765
same,area with substrate ENLYMQS,0.0799
same,area with substrate ENLYNQS,0.0621
same,area with substrate ENLYSQS,0.0554
same,area with substrate ENLYTQS,0.0852
same,area with substrate ENLYWQS,0.082
I85E,area with substrate ENLYEQS,0.0451
same,area with substrate ENLYHQS,0.0414
same,area with substrate ENLYIQS,0.0585
same,area with substrate ENLYKQS,0.0547
same,area with substrate ENLYMQS,0.0555
same,area with substrate ENLYPQS,0.0507
same,area with substrate ENLYQQS,0.0412
same,area with substrate ENLYRQS,0.0416
same,area with substrate ENLYVQS,0.0478
same,area with substrate ENLYYQS,0.0452
A170N,area with substrate ENLYEQS,0.0306
same,area with substrate ENLYGQS,0.0577
same,area with substrate ENLYIQS,0.0633
same,area with substrate ENLYKQS,0.0508
same,area with substrate ENLYNQS,0.0719
same,area with substrate ENLYRQS,0.0703
same,area with substrate ENLYTQS,0.0683
same,area with substrate ENLYWQS,0.0629
I145A,area with substrate ENLYEQS,0.0642
same,area with substrate ENLYHQS,0.0608
same,area with substrate ENLYKQS,0.081
same,area with substrate ENLYNQS,0.0641
same,area with substrate ENLYQQS,0.0603
same,area with substrate ENLYRQS,0.0609
same,area with substrate ENLYSQS,0.0876
same,area with substrate ENLYVQS,0.19
same,area with substrate ENLYYQS,0.0809
G153A,area with substrate ENLYEQS,0.0472
same,area with substrate ENLYGQS,0.0485
same,area with substrate ENLYIQS,0.0655
same,area with substrate ENLYLQS,0.0409
same,area with substrate ENLYNQS,0.0519
same,area with substrate ENLYRQS,0.0728
same,area with substrate ENLYWQS,0.0412
F163C,area with substrate ENLYEQS,0.0717
same,area with substrate ENLYGQS,0.0844
same,area with substrate ENLYHQS,0.071
same,area with substrate ENLYKQS,0.0358
same,area with substrate ENLYMQS,0.106
same,area with substrate ENLYPQS,0.0488
same,area with substrate ENLYSQS,0.0771
same,area with substrate ENLYTQS,0.097
L191W,area with substrate ENLYEQS,0.06
same,area with substrate ENLYGQS,0.0531
same,area with substrate ENLYHQS,0.0643
same,area with substrate ENLYIQS,0.0889
same,area with substrate ENLYKQS,0.0776
same,area with substrate ENLYMQS,0.05
same,area with substrate ENLYNQS,0.054
same,area with substrate ENLYPQS,0.0594
same,area with substrate ENLYQQS,0.0638
same,area with substrate ENLYRQS,0.0373
same,area with substrate ENLYVQS,0.1
same,area with substrate ENLYWQS,0.0698
R51T,area with substrate ENLYEQS,0.0471
same,area with substrate ENLYHQS,0.0815
same,area with substrate ENLYRQS,0.0596
same,area with substrate ENLYVQS,0.205
Q75L,area with substrate ENLYEQS,0.0727
same,area with substrate ENLYGQS,0.0816
V210A,area with substrate ENLYEQS,0.0739
same,area with substrate ENLYKQS,0.0454
same,area with substrate ENLYNQS,0.0703
same,area with substrate ENLYWQS,0.0669
Y12T,area with substrate ENLYEQS,0.0821
same,area with substrate ENLYGQS,0.0653
same,area with substrate ENLYHQS,0.0651
same,area with substrate ENLYIQS,0.12
same,area with substrate ENLYMQS,0.0888
same,area with substrate ENLYQQS,0.0705
same,area with substrate ENLYRQS,0.0587
same,area with substrate ENLYSQS,0.0893
F218C,area with substrate ENLYEQS,0.0696
same,area with substrate ENLYGQS,0.0572
same,area with substrate ENLYHQS,0.059
same,area with substrate ENLYIQS,0.094
same,area with substrate ENLYNQS,0.0633
same,area with substrate ENLYPQS,0.0687
same,area with substrate ENLYRQS,0.0539
same,area with substrate ENLYSQS,0.0595
same,area with substrate ENLYVQS,0.124
G35Y,area with substrate ENLYEQS,0.051
same,area with substrate ENLYGQS,0.0575
same,area with substrate ENLYNQS,0.0416
same,area with substrate ENLYVQS,0.0434
I84M,area with substrate ENLYEQS,0.0607
same,area with substrate ENLYGQS,0.0606
same,area with substrate ENLYHQS,0.0883
same,area with substrate ENLYKQS,0.0529
same,area with substrate ENLYMQS,0.0742
same,area with substrate ENLYNQS,0.0559
same,area with substrate ENLYRQS,0.0512
same,area with substrate ENLYVQS,0.108
V165K,area with substrate ENLYEQS,0.0566
same,area with substrate ENLYGQS,0.0322
same,area with substrate ENLYHQS,0.0602
same,area with substrate ENLYKQS,0.0609
same,area with substrate ENLYMQS,0.0416
same,area with substrate ENLYNQS,0.0669
same,area with substrate ENLYPQS,0.0525
same,area with substrate ENLYRQS,0.0433
same,area with substrate ENLYVQS,0.0407
same,area with substrate ENLYWQS,0.0476
I145S,area with substrate ENLYEQS,0.0745
same,area with substrate ENLYGQS,0.0497
same,area with substrate ENLYHQS,0.0741
same,area with substrate ENLYIQS,0.13
same,area with substrate ENLYKQS,0.03
same,area with substrate ENLYMQS,0.148
same,area with substrate ENLYNQS,0.0694
same,area with substrate ENLYPQS,0.102
same,area with substrate ENLYQQS,0.0607
same,area with substrate ENLYRQS,0.0547
same,area with substrate ENLYVQS,0.196
same,area with substrate ENLYWQS,0.0944
E3K,area with substrate ENLYEQS,0.0539
same,area with substrate ENLYHQS,0.079
same,area with substrate ENLYIQS,0.122
same,area with substrate ENLYMQS,0.094
same,area with substrate ENLYNQS,0.065
same,area with substrate ENLYPQS,0.0745
same,area with substrate ENLYRQS,0.0575
same,area with substrate ENLYSQS,0.0872
same,area with substrate ENLYWQS,0.107
same,area with substrate ENLYYQS,0.0582
V165Q,area with substrate ENLYEQS,0.0725
same,area with substrate ENLYHQS,0.0509
same,area with substrate ENLYLQS,0.0686
same,area with substrate ENLYRQS,0.0347
same,area with substrate ENLYVQS,0.0377
same,area with substrate ENLYWQS,0.0532
same,area with substrate ENLYYQS,0.047
Y179G,area with substrate ENLYEQS,0.0525
same,area with substrate ENLYGQS,0.0449
same,area with substrate ENLYMQS,0.0685
same,area with substrate ENLYNQS,0.0439
same,area with substrate ENLYPQS,0.0543
same,area with substrate ENLYQQS,0.0595
same,area with substrate ENLYSQS,0.0441
